Source: PubChem BioAssay AID1745853 (National Center for Advancing Translational Sciences (NCATS), 2022)
The list shows a part of the results. The main result of the screen is listed elsewhere. These columns were measured beside it and carry no call. Numbered stars: 1 amine (or outer) side, 2 acyl side, 3 side chain; on linkers, the order of the positions; unused ones are H or OH. Square brackets hold non-standard residues; d marks the D form. Peptide text beside a SMILES is read from it. X5 = CC(C)=CCc1cc(C(O)C(N[*:1])C(=O)[*:2])ccc1O

Tests used:
Test in all cases: Primary Screen for Target Class Profiling of Small Molecule Inhibitors of Methyltransferases
[1] = target: Glycine N-methyltransferase (Homo sapiens) (UniProt Q14749); settings: purified enzyme, MTase-Glo SAH luminescence; measured here: GNMT inhibition; at 40 µM; stronger effect = lower value
How it was run: (§1)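 Each enzyme was assayed with SAM and its substrate. SAH formation detected by MTase-Glo luminescence; single-point 40 uM screen[…].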

[2] = target: Guanidinoacetate N-methyltransferase (Homo sapiens) (UniProt Q14353); settings: purified enzyme, MTase-Glo SAH luminescence; measured here: GAMT inhibition; at 40 µM; stronger effect = lower value
How it was run: as §1

[3] = target: Histamine N-methyltransferase (Homo sapiens) (UniProt P50135); settings: purified enzyme, MTase-Glo SAH luminescence; measured here: HNMT inhibition; at 40 µM; stronger effect = lower value
How it was run: as §1

[4] = target: Nicotinamide N-methyltransferase (Homo sapiens) (UniProt P40261); settings: purified enzyme, MTase-Glo SAH luminescence; measured here: NNMT inhibition; at 40 µM; stronger effect = lower value
How it was run: as §1

[5] = target: Phenylethanolamine N-methyltransferase (Homo sapiens) (UniProt P11086); settings: purified enzyme, MTase-Glo SAH luminescence; measured here: PNMT inhibition; at 40 µM; stronger effect = lower value
How it was run: as §1
% is scaled to controls: 0 for no effect and ±100 for the full control effect.

SMILES | activity change, negative = inhibition [1] | activity change, negative = inhibition [2] | activity change, negative = inhibition [3] | activity change, negative = inhibition [4] | activity change, negative = inhibition [5]
O=C(c1nc(-c2cccnc2)c2ccccn12)N1CCOCC1 | -8.15% | -8.71% | -3.38% | -10.5% | -4.34%
Cc1ccc(Nc2ccn3c(=O)n(CC(=O)Nc4ccc(F)cc4C)nc3n2)cc1 | -1.12% | 2.4% | -6.49% | -7.54% | -8.22%
CC1CCN(c2cc(NC(=O)c3ccccc3)ncn2)CC1 | 0.517% | 6.27% | 1.82% | -17.3% | -4.83%
COc1ccc(Br)cc1CN1C(=O)c2ccc(-c3ccco3)n2CC1(C)C(=O)NCc1ccccc1 (stereo not drawn) | -2.33% | 0% | -1.66% | -4.66% | -5.36%
CC1(C(=O)NCc2ccccc2)Cn2cnc(C(=O)NCCc3cccs3)c2C(=O)N1C1CC1 (stereo not drawn) | -5.99% | 2.37% | -3.5% | -2.96% | -1.95%
CCc1nc(-c2c3n(c(=O)n(CC(=O)Nc4cc(C)on4)c2=O)CCCC3)no1 | -5.64% | -6.85% | -3.02% | -14.2% | 7.24%
CCC12CCCN3CCc4c(n(c5ccccc45)C(O)C1)C32 (stereo not drawn) | 4.36% | 7.81% | -45.1% | -10.6% | 5.91%
O=C(Cn1c(=O)n2nc(-c3ccccc3)nc2c2ccccc21)N1CCN(c2ccccc2F)CC1 | 10.8% | 0% | 10.9% | 7.29% | 4.52%
NC[C@@H]1O[C@@H](O[C@@H]2[C@@H](O[C@@H]3O[C@H](CO)[C@@H](O)[C@H]3O)[C@H](O)[C@@H](N)C[C@H]2N)[C@@H](N)[C@H](O)[C@H]1O | 4.89% | 8.69% | 11.6% | -3.26% | 8.38%
CN(CC(=O)NCc1ccccc1Cl)S(=O)(=O)c1ccc2[nH]c3c(c2c1)CCCC3 | -9.82% | -2.87% | -11.9% | -15.2% | -24.2%
COC[C@@H]1CN(C(=O)Cc2c(C)noc2C)C[C@H]1c1ccccn1 | 2.5% | -0.177% | 1.18% | -3.67% | 11%
O=C(NC[C@H]1OC[C@@H](NC2CCC2)[C@@H]1O)N1CCOCC1 | -2.86% | -4.8% | -2.9% | -5.89% | -2.52%
Cn1ncc2c(NCCc3nnc(N)s3)nc(-c3ccncc3)nc21 | -27.3% | -5.85% | -9.64% | -18.7% | -9.81%
C[C@@H]1O[C@@H](O[C@H]2[C@H](O[C@H]3[C@H](O[C@H]4CC[C@@]5(C)C(CC[C@]6(C)C5CC=C5[C@@H]7CC(C)(C)CC[C@]7(C(=O)O[C@@H]7O[C@H](CO)[C@@H](O[C@@H]8O[C@@H](C)[C@H](O)[C@@H](O)[C@H]8O)[C@H](O)[C@H]7O)CC[C@]56C)C4(C)C)OC[C@H](O)[C@@H]3O)O[C@H](CO)[C@@H](O)[C@@H]2O)[C@H](O)[C@H](O)[C@H]1O (stereo partly drawn) | 1.12% | 12.5% | 9.18% | -0.431% | 8.43%
Fc1ccc2nc(CCC#Cc3ccccn3)cn2c1 | -2.52% | -4.17% | 5.71% | -16.6% | -0.484%
CC(=O)N[C@@H]1CN(C(=O)CCc2c[nH]c3ccccc23)C[C@H]1CO | -2.4% | -5.43% | -1.17% | -2.33% | -2.5%
CC(=O)Nc1ccc(N2C(=O)c3ccc(-c4ccco4)n3CC2(C)C(=O)NCc2ccccc2)cc1 (stereo not drawn) | -10.2% | 0.921% | 10.9% | 16.1% | 5.71%
CCCn1c(=O)c2ccc(C(=O)NC(C)C)cc2n2c(=O)n(Cc3cc(C)ccc3C)nc12 | 5.48% | 0% | 5.75% | 4.74% | 7.43%
CCCn1c(=O)c2ccc(C(=O)NCC(C)C)cc2n2c(=O)n(Cc3ccc(F)cc3Cl)nc12 | -1.06% | 4.52% | 2.73% | -2.21% | 3.23%

SMILES | activity change, negative = inhibition [1] | activity change, negative = inhibition [2] | activity change, negative = inhibition [3] | activity change, negative = inhibition [4] | activity change, negative = inhibition [5]
C=C(C(=O)O)[C@@H]1CC=C(CCC(C)=O)[C@@H](C)CC1 | -2.12% | -10.8% | 1.12% | -17.8% | -1.12%
CC1(C(=O)NCc2ccc(F)cc2)Cn2c(nc3ccccc32)C(=O)N1Cc1ccc(Cl)cc1 (stereo not drawn) | 6.93% | 0.091% | 7.1% | 8.78% | 3.09%
Cc1ccc(CN2C(=O)c3ccc(-c4ccco4)n3CC2(C)C(=O)NCc2ccccc2)cc1 (stereo not drawn) | -5.37% | 4.38% | -0.932% | 0.463% | -2.69%
CC(C)=CCc1cc(C(O)C2NC(=O)CNC(=O)C(Cc3c[nH]c4ccccc34)NC(=O)C3CCCN3C(=O)CNC(=O)C(C(C)C)NC(=O)CNC2=O)ccc1O (stereo not drawn) (cyclo(G[X5]GVGPW); configuration not given here) | -3.07% | -0.875% | 5.17% | -16.8% | -10.7%
CC(C)CNC(=O)c1ccc2c(=O)n(C(C)C)c3nn(CC(=O)NC4CCCC4)c(=O)n3c2c1 | 3.11% | 0% | 6.12% | 0.53% | 2.08%
CN1CCNC(=O)C1CC(=O)O (stereo not drawn) | -3.5% | -1.2% | -0.25% | -2.26% | -0.219%
CCCn1c(=O)c2cc(Cl)ccc2n2c(SCc3ccc(F)cc3)nnc12 | -13.5% | 4.69% | 2.42% | -9.32% | 0.808%
CC1CCC2C(C(=O)O)=CC3CC(C)(C)CC132 (stereo not drawn) | 4.1% | 8.53% | 4.94% | -16.5% | 2.79%
COc1cccc(CNC(=O)c2cc3n(n2)CC(C)(C(=O)NCCC(C)C)N(C)C3=O)c1OC (stereo not drawn) | 8.52% | 0% | 10.4% | 0.359% | 7.45%
COc1ccc(CN2CCN(C3CCN(c4ccccc4)CC3)CC2CCO)cc1C (stereo not drawn) | -6.34% | -5.16% | -7.32% | -10.3% | -13.7%
CC[C@H](/C=C/[C@@H](C)[C@H]1CC[C@H]2[C@@H]3CC=C4C[C@@H](O)CC[C@]4(C)[C@H]3CC[C@]12C)C(C)C | 7.58% | 4.08% | 8.7% | -9.24% | 3.39%
Cc1onc(-c2cnn(C)c2NCc2ccc(C#N)cc2)c1C(=O)N1CCCC1 | -6.86% | -8.64% | -2.33% | -14.3% | -9.44%
CC(C)n1c(=O)c(C(=O)NC2CC3CCC(C2)N3C[C@@H](O)CN(C)S(C)(=O)=O)cc2ccccc21 (stereo partly drawn) | -2.99% | -6.44% | -0.462% | -21.6% | -5.45%
C/C=C/C(O)C1OC(=O)CC1Nc1ccc(C(=O)O)cc1 (stereo not drawn) | -0.13% | -2.1% | 11% | -13.7% | -10.8%
CCCSCCCN1C(=O)c2cc3occc3n2CC1(C)C(=O)NC1CCC(C)CC1 (stereo not drawn) | -3.6% | 6.81% | 1.01% | -0.565% | -2.03%
Cc1ccc(CN2CCCn3nc(C(=O)NCCc4cccs4)cc3C2=O)cc1 | -8.62% | 0% | -2.35% | -5.97% | -1.68%
O=S(=O)(c1ccccc1F)N1CCC(CCc2nc(C3CCOCC3)no2)CC1 | -6.04% | -2.83% | -1.59% | -8.38% | -11.6%
c1ccc(-c2ncc(CN3CCN(c4ncccn4)CC3)[nH]2)cc1 | -4.49% | -1.05% | 5.32% | -15.6% | 1.5%
NS(=O)(=O)Nc1ncnc(OCCOc2ncc(Br)cn2)c1-c1ccc(Br)cc1 | -23.4% | -16.1% | -26.6% | -46.3% | -32.6%

SMILES | activity change, negative = inhibition [1] | activity change, negative = inhibition [2] | activity change, negative = inhibition [3] | activity change, negative = inhibition [4] | activity change, negative = inhibition [5]
CCCS(=O)(=O)N1CCCC(c2[nH]ccc2C(N)=O)C1 (stereo not drawn) | -2.75% | -2.8% | -0.274% | -7.83% | -5.95%
O=C(NC[C@H]1CN(c2ccc(N3CCOCC3=O)cc2)C(=O)O1)c1ccc(Cl)s1 | -2.26% | -1.18% | 7.26% | -14.5% | 1.68%
Cc1ccc(NS(=O)(=O)c2cc3c(cc2N[C@H](C)CO)NC(=O)CC3)cc1C |  | 1.77% |  | -15.3% | -18.6%
CC(C)(O)C1CCC2(C)C3C(O)C4C(C13)C42CO (stereo not drawn) | 6.45% | 7.12% | 10.6% | -6.13% | 5.17%
COc1ccc(OC)c(-c2nnc3n(Cc4ccc(C)cc4)c(=O)c4ccccc4n23)c1 | -4.59% | 0% | -2.14% | -5.1% | -7.19%
CC(C)Cn1c(=O)c2ccc(C(=O)NC(C)C)cc2n2c(=O)n(CC(=O)NC(C)(C)C)nc12 | 1.52% | 6.21% | 8.5% | -2.7% | 3.63%
CNCCN1C(=O)CC[C@H]2CN(C(=O)COc3cccnc3)CC[C@H]21 | -2.88% | -7.05% | -0.554% | -5.88% | -1.18%
CC(C)c1nn(-c2c(Cl)cccc2Cl)c2nc(Cc3ccc(OCCO)cc3)[nH]c(=O)c12 | 1.36% | 5.09% | 11.6% | -38.2% | 5.3%
CC(=O)Nc1c2n(c3ccccc13)CC(C)(C(=O)NC1CCCC1)N(CCC(C)C)C2=O (stereo not drawn) | 2.88% | 0.044% | 1.31% | 8.54% | 3.54%
c1ccc(Nc2cc3c(cn2)NCCN(Cc2ccccn2)C3)cc1 | -18.3% | -7.18% | -16.4% | -8.71% | -34.8%
CC(C)CCN1C(=O)c2cc(-c3cccs3)nn2CC1(C)C(=O)NC1CCCCC1 (stereo not drawn) | 3.5% | 0% | 8.51% | 14.5% | 5.19%
NC(=O)CN1CC2(CCC1=O)CCN(C[C@@H](O)CO)CC2 | 0.183% | -0.922% | 2.23% | 0.052% | -5.12%
CCCn1c(=O)c2ccccc2n2c(=O)n(CC(=O)c3cc(C)ccc3C)nc12 | 1.24% | 3.55% | 6.18% | -32.3% | 2.69%
C[C@@H]1C[C@H]2[C@@H]3C[C@H](F)C4=CC(=O)C=C[C@]4(C)[C@@]3(F)[C@@H](O)C[C@]2(C)[C@@]1(O)C(=O)CO | 6.55% | 4.4% | 3.66% | -8.28% | 0.432%
Cc1ccc(CN2CC[C@H](c3nc4cc(C)ccc4o3)C2)cc1 | -2.24% | -0.908% | -0.753% | 0.145% | -1.94%
CCN1C(=O)Cc2cc(C(=O)NCc3c(C)cc(C)cc3C)ccc21 | -2.36% | -8.96% | -9.64% | -19.4% | -11.1%
COc1cc(N2CCC(N3CCN(C)CC3)CC2)ccc1Nc1ncc(Cl)c(-c2c[nH]c3ccccc23)n1 | -47.9% | -13.2% | -73.5% | -34.5% | -32.3%
CN1C(=O)c2cc(C(=O)N3CCN(c4ccccc4F)CC3)nn2CC1(C)C(=O)NC1CCCC1 (stereo not drawn) | 1.72% | 0% | 4.68% | -1.87% | 2.01%
Cc1cc2c(cc1CC(=O)c1sccc1S(=O)(=O)Nc1onc(C)c1Cl)OCO2 | -1.23% | -4.71% | 12.1% | -63.7% | -0.265%
